# The supplement of paper PMC8728848
# Some of the results follow.
# B1: TIM1 (protein)
# chain: ADGIQSVKVGGEAGPSVTLPCHYSGAVTSMCWNRGSCSLFTCQNGIVWTNGTHVTYRKDTRYKLLGDLSRRDVSLTIENTAVSDSGVYCCRVEHRGWFNDMKITVSLEIVPPHHHHHH
# Legend:
# Assay in all cases: glycan array binding signal (z-score within array); higher = stronger binding
# Conditions in all cases: glycan notation: IUPAC condensed, linker removed
# [1] = target: GlcNAc(b1-2)Gal(b1-3)GalNAc
# In short: (§1)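 The binding signal is a Z-score computed within each array and averaged over linkers. Arrays of the same protein sequence at different concentrations or buffers were also averaged together. Data originate from 3228 arrays in the Consortium for Functional Glycomics database, kept only where the protein sequence was available.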
# [2] = target: GlcNAc(b1-2)Man(a1-3)[GlcNAc(b1-2)Man(a1-6)]Man(b1-4)GlcNAc(b1-4)GlcNAc
# In short: as §1
# [3] = target: GlcNAc(b1-2)Man(a1-3)[GlcNAc(b1-2)Man(a1-6)]Man(b1-4)GlcNAc(b1-4)[Fuc(a1-6)]GlcNAc
# In short: as §1
# [4] = target: GlcNAc(b1-2)Man(a1-3)[GlcNAc(b1-4)][GlcNAc(b1-2)Man(a1-6)]Man(b1-4)GlcNAc(b1-4)GlcNAc
# In short: as §1
# [5] = target: GlcNAc(b1-2)Man(a1-3)[GlcNAc(b1-4)][GlcNAc(b1-2)Man(a1-6)]Man(b1-4)GlcNAc(b1-4)[Fuc(a1-6)]GlcNAc
# In short: as §1
# [6] = target: GlcNAc(b1-2)[GlcNAc(b1-4)]Man(a1-3)[GlcNAc(b1-2)Man(a1-6)]Man(b1-4)GlcNAc(b1-4)GlcNAc
# In short: as §1
# [7] = target: GlcNAc(b1-2)[GlcNAc(b1-4)]Man(a1-3)[GlcNAc(b1-4)][GlcNAc(b1-2)Man(a1-6)]Man(b1-4)GlcNAc(b1-4)GlcNAc
# In short: as §1
# [8] = target: GlcNAc(b1-2)[GlcNAc(b1-4)]Man(a1-3)[GlcNAc(b1-4)][GlcNAc(b1-2)[GlcNAc(b1-6)]Man(a1-6)]Man(b1-4)GlcNAc(b1-4)GlcNAc
# In short: as §1
# [9] = target: GlcNAc(b1-2)[GlcNAc(b1-4)]Man(a1-3)[GlcNAc(b1-4)][GlcNAc(b1-2)[GlcNAc(b1-6)]Man(a1-6)]Man(b1-4)GlcNAc(b1-4)[Fuc(a1-6)]GlcNAc
# In short: as §1
# [10] = target: GlcNAc(b1-2)[GlcNAc(b1-6)]Man(a1-6)[GlcNAc(b1-2)Man(a1-3)]Man(b1-4)GlcNAc(b1-4)GlcNAc
# In short: as §1
# [11] = target: GlcNAc(b1-2)[GlcNAc(b1-6)]Man(a1-6)[GlcNAc(b1-2)Man(a1-3)]Man(b1-4)GlcNAc(b1-4)[Fuc(a1-6)]GlcNAc
# In short: as §1
# [12] = target: GlcNAc(b1-2)[GlcNAc(b1-6)]Man(a1-6)[GlcNAc(b1-4)][GlcNAc(b1-2)Man(a1-3)]Man(b1-4)GlcNAc(b1-4)GlcNAc
# In short: as §1
# GlcNAc(b1-3)Fuc = target: GlcNAc(b1-3)Fuc
# In short: as §1
# GlcNAc(b1-3)Gal = target: GlcNAc(b1-3)Gal
# In short: as §1
# [13] = target: GlcNAc(b1-3)Gal(b1-3)GalNAc
# In short: as §1
# GlcNAc(b1-3)Gal(b1-4)Glc = target: GlcNAc(b1-3)Gal(b1-4)Glc
# In short: as §1
# [14] = target: GlcNAc(b1-3)Gal(b1-4)GlcNAc
# In short: as §1
# [15] = target: GlcNAc(b1-3)Gal(b1-4)GlcNAc(b1-2)Man(a1-3)[GlcNAc(b1-3)Gal(b1-4)GlcNAc(b1-2)Man(a1-6)]Man(b1-4)GlcNAc(b1-4)GlcNAc
# In short: as §1
# [16] = target: GlcNAc(b1-3)Gal(b1-4)GlcNAc(b1-2)Man(a1-3)[GlcNAc(b1-3)Gal(b1-4)GlcNAc(b1-2)Man(a1-6)]Man(b1-4)GlcNAc(b1-4)[Fuc(a1-6)]GlcNAc
# In short: as §1
# [17] = target: GlcNAc(b1-3)Gal(b1-4)GlcNAc(b1-2)[GlcNAc(b1-3)Gal(b1-4)GlcNAc(b1-6)]Man(a1-6)[GlcNAc(b1-3)Gal(b1-4)GlcNAc(b1-2)Man(a1-3)]Man(b1-4)GlcNAc(b1-4)GlcNAc
# In short: as §1
# [18] = target: GlcNAc(b1-3)Gal(b1-4)GlcNAc(b1-3)Gal(b1-4)GlcNAc
# In short: as §1
# [19] = target: GlcNAc(b1-3)Gal(b1-4)GlcNAc(b1-3)Gal(b1-4)GlcNAc(b1-2)Man(a1-3)[GlcNAc(b1-3)Gal(b1-4)GlcNAc(b1-3)Gal(b1-4)GlcNAc(b1-2)Man(a1-6)]Man(b1-4)GlcNAc(b1-4)GlcNAc
# In short: as §1
# [20] = target: GlcNAc(b1-3)Gal(b1-4)GlcNAc(b1-3)Gal(b1-4)GlcNAc(b1-2)Man(a1-3)[GlcNAc(b1-3)Gal(b1-4)GlcNAc(b1-3)Gal(b1-4)GlcNAc(b1-2)Man(a1-6)]Man(b1-4)GlcNAc(b1-4)[Fuc(a1-6)]GlcNAc
# In short: as §1
# [21] = target: GlcNAc(b1-3)Gal(b1-4)GlcNAc(b1-3)Gal(b1-4)GlcNAc(b1-2)[GlcNAc(b1-3)Gal(b1-4)GlcNAc(b1-3)Gal(b1-4)GlcNAc(b1-6)]Man(a1-6)[GlcNAc(b1-3)Gal(b1-4)GlcNAc(b1-3)Gal(b1-4)GlcNAc(b1-2)Man(a1-3)]Man(b1-4)GlcNAc(b1-4)[Fuc(a1-6)]GlcNAc
# In short: as §1
# [22] = target: GlcNAc(b1-3)Gal(b1-4)GlcNAc(b1-3)Gal(b1-4)GlcNAc(b1-3)Gal(b1-4)GlcNAc(b1-2)Man(a1-3)[GlcNAc(b1-3)Gal(b1-4)GlcNAc(b1-3)Gal(b1-4)GlcNAc(b1-3)Gal(b1-4)GlcNAc(b1-2)Man(a1-6)]Man(b1-4)GlcNAc(b1-4)GlcNAc
# In short: as §1
# [23] = target: GlcNAc(b1-3)Gal(b1-4)GlcNAc(b1-3)Gal(b1-4)GlcNAc(b1-3)Gal(b1-4)GlcNAc(b1-2)Man(a1-3)[GlcNAc(b1-3)Gal(b1-4)GlcNAc(b1-3)Gal(b1-4)GlcNAc(b1-3)Gal(b1-4)GlcNAc(b1-2)Man(a1-6)]Man(b1-4)GlcNAc(b1-4)[Fuc(a1-6)]GlcNAc
# In short: as §1
# [24] = target: GlcNAc(b1-3)Gal(b1-4)GlcNAc(b1-3)Gal(b1-4)GlcNAc(b1-3)Gal(b1-4)GlcNAc(b1-2)[GlcNAc(b1-3)Gal(b1-4)GlcNAc(b1-3)Gal(b1-4)GlcNAc(b1-3)Gal(b1-4)GlcNAc(b1-6)]Man(a1-6)[GlcNAc(b1-3)Gal(b1-4)GlcNAc(b1-3)Gal(b1-4)GlcNAc(b1-3)Gal(b1-4)GlcNAc(b1-2)Man(a1-3)]Man(b1-4)GlcNAc(b1-4)[Fuc(a1-6)]GlcNAc
# In short: as §1
# [25] = target: GlcNAc(b1-3)Gal(b1-4)GlcNAc(b1-3)Gal(b1-4)GlcNAc(b1-3)Gal(b1-4)GlcNAc(b1-3)Gal(b1-4)GlcNAc(b1-2)Man(a1-3)[GlcNAc(b1-3)Gal(b1-4)GlcNAc(b1-3)Gal(b1-4)GlcNAc(b1-3)Gal(b1-4)GlcNAc(b1-3)Gal(b1-4)GlcNAc(b1-2)Man(a1-6)]Man(b1-4)GlcNAc(b1-4)GlcNAc
# In short: as §1
# [26] = target: GlcNAc(b1-3)Gal(b1-4)GlcNAc(b1-3)Gal(b1-4)GlcNAc(b1-3)Gal(b1-4)GlcNAc(b1-3)Gal(b1-4)GlcNAc(b1-2)Man(a1-3)[GlcNAc(b1-3)Gal(b1-4)GlcNAc(b1-3)Gal(b1-4)GlcNAc(b1-3)Gal(b1-4)GlcNAc(b1-3)Gal(b1-4)GlcNAc(b1-2)Man(a1-6)]Man(b1-4)GlcNAc(b1-4)[Fuc(a1-6)]GlcNAc
# In short: as §1
# [27] = target: GlcNAc(b1-3)Gal(b1-4)GlcNAc(b1-3)Gal(b1-4)GlcNAc(b1-3)Gal(b1-4)GlcNAc(b1-3)Gal(b1-4)GlcNAc(b1-2)[GlcNAc(b1-3)Gal(b1-4)GlcNAc(b1-3)Gal(b1-4)GlcNAc(b1-3)Gal(b1-4)GlcNAc(b1-3)Gal(b1-4)GlcNAc(b1-6)]Man(a1-6)[GlcNAc(b1-3)Gal(b1-4)GlcNAc(b1-3)Gal(b1-4)GlcNAc(b1-3)Gal(b1-4)GlcNAc(b1-3)Gal(b1-4)GlcNAc(b1-2)Man(a1-3)]Man(b1-4)GlcNAc(b1-4)[Fuc(a1-6)]GlcNAc
# In short: as §1
# [28] = target: GlcNAc(b1-3)Gal(b1-4)GlcNAc(b1-3)Gal(b1-4)GlcNAc(b1-3)GalNAc
# In short: as §1
# [29] = target: GlcNAc(b1-3)Gal(b1-4)GlcNAc(b1-3)GalNAc
# In short: as §1
# [30] = target: GlcNAc(b1-3)Gal(b1-4)GlcNAc(b1-3)[GlcNAc(b1-3)Gal(b1-4)GlcNAc(b1-3)]GalNAc
# In short: as §1
# [31] = target: GlcNAc(b1-3)Gal(b1-4)GlcNAc(b1-6)[Gal(b1-3)]GalNAc
# In short: as §1
# [32] = target: GlcNAc(b1-3)Gal(b1-4)GlcNAc(b1-6)[GlcNAc(b1-3)Gal(b1-3)]GalNAc
# In short: as §1
# [33] = target: GlcNAc(b1-3)Gal(b1-4)GlcNAc(b1-6)[GlcNAc(b1-3)]Gal(b1-4)GlcNAc
# In short: as §1
# GlcNAc(b1-3)GalNAc = target: GlcNAc(b1-3)GalNAc
# In short: as §1
# GlcNAc(b1-3)Man = target: GlcNAc(b1-3)Man
# In short: as §1
# [34] = target: GlcNAc(b1-3)[GlcNAc(b1-4)][GlcNAc(b1-6)]GlcNAc
# In short: as §1
# [35] = target: GlcNAc(b1-3)[GlcNAc(b1-6)]Gal(b1-4)GlcNAc
# In short: as §1
# [36] = target: GlcNAc(b1-3)[GlcNAc(b1-6)]GalNAc
# In short: as §1
# [37] = target: GlcNAc(b1-4)Gal(b1-4)GlcNAc
# In short: as §1
# GlcNAc(b1-4)GlcNAc = target: GlcNAc(b1-4)GlcNAc
# In short: as §1
# [38] = target: GlcNAc(b1-4)GlcNAc(b1-4)GlcNAc
# In short: as §1
# [39] = target: GlcNAc(b1-4)GlcNAc(b1-4)GlcNAc(b1-4)GlcNAc(b1-4)GlcNAc
# In short: as §1
binder,measurement,setting,value
B1,glycan array binding signal (z-score),[1],-0.135
same,glycan array binding signal (z-score),[2],-0.204
same,glycan array binding signal (z-score),[3],0.709
same,glycan array binding signal (z-score),[4],-0.14
same,glycan array binding signal (z-score),[5],-0.281
same,glycan array binding signal (z-score),[6],-0.292
same,glycan array binding signal (z-score),[7],0.106
same,glycan array binding signal (z-score),[8],-0.286
same,glycan array binding signal (z-score),[9],-0.295
same,glycan array binding signal (z-score),[10],-0.204
same,glycan array binding signal (z-score),[11],-0.171
same,glycan array binding signal (z-score),[12],-0.28
same,glycan array binding signal (z-score),GlcNAc(b1-3)Fuc,-0.213
same,glycan array binding signal (z-score),GlcNAc(b1-3)Gal,-0.191
same,glycan array binding signal (z-score),[13],-0.204
same,glycan array binding signal (z-score),GlcNAc(b1-3)Gal(b1-4)Glc,-0.191
same,glycan array binding signal (z-score),[14],-0.194
same,glycan array binding signal (z-score),[15],-0.146
same,glycan array binding signal (z-score),[16],0.069
same,glycan array binding signal (z-score),[17],1.97
same,glycan array binding signal (z-score),[18],-0.22
same,glycan array binding signal (z-score),[19],5.59
same,glycan array binding signal (z-score),[20],0.702
same,glycan array binding signal (z-score),[21],1.97
same,glycan array binding signal (z-score),[22],0.073
same,glycan array binding signal (z-score),[23],0.864
same,glycan array binding signal (z-score),[24],1.02
same,glycan array binding signal (z-score),[25],0.294
same,glycan array binding signal (z-score),[26],0.002
same,glycan array binding signal (z-score),[27],0.226
same,glycan array binding signal (z-score),[28],-0.123
same,glycan array binding signal (z-score),[29],-0.195
same,glycan array binding signal (z-score),[30],0.232
same,glycan array binding signal (z-score),[31],-0.173
same,glycan array binding signal (z-score),[32],-0.149
same,glycan array binding signal (z-score),[33],-0.178
same,glycan array binding signal (z-score),GlcNAc(b1-3)GalNAc,-0.222
same,glycan array binding signal (z-score),GlcNAc(b1-3)Man,-0.201
same,glycan array binding signal (z-score),[34],-0.244
same,glycan array binding signal (z-score),[35],-0.191
same,glycan array binding signal (z-score),[36],-0.242
same,glycan array binding signal (z-score),[37],-0.125
same,glycan array binding signal (z-score),GlcNAc(b1-4)GlcNAc,-0.138
same,glycan array binding signal (z-score),[38],-0.269
same,glycan array binding signal (z-score),[39],-0.269
